The source of these data is PubChem BioAssay AID1346428 (National Center for Advancing Translational Sciences (NCATS), 2018).

“And” between values parts separate entries of the source, which are not always exact repeats. Equal values may be shown once. Out of some 48,000 compounds screened, about 1,200 (2.5%) were called active. Another 2% or so got no clear call; they are omitted.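 How the source made its calls: active means activation of at least 60% and not above a set upper limit (about 1 call in 100 departs from these limits); inconclusive means activation of 40% to 60%, or above that upper limit; inactive means activation under 40%.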 The list shows a part of the results.

Chain of UniProt O75388 (O75388 whole entry, looked up): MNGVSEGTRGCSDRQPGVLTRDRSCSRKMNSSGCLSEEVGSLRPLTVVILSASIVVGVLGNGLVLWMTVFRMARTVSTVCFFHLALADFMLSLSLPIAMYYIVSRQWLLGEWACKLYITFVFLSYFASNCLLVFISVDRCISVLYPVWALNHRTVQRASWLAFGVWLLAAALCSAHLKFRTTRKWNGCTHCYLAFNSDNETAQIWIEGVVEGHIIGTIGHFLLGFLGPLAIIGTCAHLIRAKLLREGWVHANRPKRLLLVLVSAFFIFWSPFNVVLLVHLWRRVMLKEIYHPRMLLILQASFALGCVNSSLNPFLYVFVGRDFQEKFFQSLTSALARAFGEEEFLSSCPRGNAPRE

This experiment concerns the target Probable G-protein coupled receptor 32 (Homo sapiens) (UniProt O75388). Kind of experiment: qHTS for Agonists of Human Resolvin D1 Receptor DRV1. The following applies: CHO-K1 GPR32 beta-arrestin PathHunter luminescence, 90 min; at 76.9 µM; stronger effect = higher value; zero percent set by DMSO-only wells. The essentials:
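Beta-arrestin recruitment read-out: luminescence from complemented beta-Gal in CHO-K1 GPR32 PathHunter cells, measured 1 h after detection reagent at ambient temperature following 90 min compound exposure at 37 °C; DMSO served as basal (EC0) control.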
On the technique in general: Quantitative high-throughput screening tests each substance at several concentrations.
On to `CSc1ccc(CCNC(=O)c2ccc(-n3c(C)cc4c3CCCC4)cc2)cc1`, for which the activation was inactive: 15.3%.

Take `O=[N+]([O-])c1cccc2cn[nH]c12`: the activation was inactive: -11.2%.

Take `CCc1ccccc1Nc1nn2c(=O)c3ccc(C(=O)NC4CCCCC4)cc3nc2s1`: the activation was inactive: 1.76%.

For the compound `Cc1ccn2c(=O)c(C(=O)NCc3ccccc3Cl)c(O)nc2c1`, the activation is inactive: 7.33%.

As for `COc1ccccc1OCC(O)CN1CCN(CC(=O)Nc2c(C)cccc2C)CC1` (stereo not drawn), the activation was inactive: 10.8% and inactive: -6.23%.

In the case of `COc1cc(OC)c(NC(=O)c2c3c(nn2C)-c2ccccc2SC3)cc1Cl`, the activation is inactive: 21.8%.

As for `CCOC(=O)c1c(N)n(-c2cccc(C)c2C)c2nc3ccccc3nc12`, the activation is inactive: 12%.

As for `COc1cccc(C(=O)Nc2ccc(NC(=O)c3ccc(C(C)(C)C)cc3)cc2)c1`, the activation was inactive: 6.23%.

As for `COC(=O)C(CCSC)NC(=O)c1cc2c(n(-c3ccc(OC)cc3)c1=O)CC(C)(C)CC2=O` (stereo not drawn), the activation was inactive: 0.892%.

Turning to `Cc1ccc(N2CC(NC(=O)C3CCCCC3)CC2=O)cc1C` (stereo not drawn), the activation was inactive: 10.3%.

With `COc1ccc(S(=O)(=O)Nc2cccc(-c3ccc(N4CCCCCC4)nn3)c2)c(OC)c1`, the activation was inactive: 2.78%.

Regarding `COc1cccc2c1Oc1ncccc1N(c1ccc(C(=O)NCc3cccc(C)c3)s1)C2`, the activation is inactive: -18.5%.

For the compound `CC1(C(=O)Nc2ncc(Cc3ccc(Br)cc3)s2)Cc2ccccc2C(=O)O1` (stereo not drawn), the activation was inactive: 0.83%.

On to `COc1cc(/C=C(\C#N)C(=O)Nc2nnc(C(F)(F)F)s2)ccc1OCc1ccc(C(F)(F)F)cc1C(F)(F)F`, for which the activation was inactive: 9.57%.

As to `CCC(C)NC(=O)c1ccc2nc(Cc3ccccc3)oc2c1` (stereo not drawn), the activation is inactive: -10.7%.

In the case of `COc1ccc(-c2nc3scc(CCNC(=O)Cc4ccc(F)cc4)n3n2)cc1`, the activation is inactive: 7.99%.

Regarding `COc1cc(OC)c(Nc2c3c(nc4nc(-c5cccs5)nn24)CCCC3)cc1Cl`, the activation was inactive: -55.5%.

As to `CCN(c1ccccc1)S(=O)(=O)c1nnc(NC(=O)c2ccco2)s1`, the activation is inactive: 22.9%.

Consider `Cc1ccccc1-c1nnc(SCC(=O)N2CCCCC2)o1`, for which the activation was inactive: -1.46%.

Take `Cc1ccc(-c2nc(CS(=O)(=O)CC(=O)Nc3cc(C)ccc3C)c(C)o2)cc1`: the activation was inactive: -6.29%.

Turning to `Cn1c(=O)cc(OCC(=O)NCc2ccc(F)cc2Cl)c2ccccc21`, the activation was inactive: -4.11%.

As for `COc1ccc(CCNC(=O)CCCn2nc(C)c3sc4ccccc4c3c2=O)cc1OC`, the activation is inactive: -18.8%.

`Cc1csc2nc(COc3ccccc3NC(=O)c3ccccc3Cl)cc(=O)n12`: the activation was inactive: 6.5%.

On to `COc1cc(CN(C(=O)COc2ccc(Cl)c(C)c2)c2ccccn2)cc(OC)c1OC`, for which the activation is inactive: 18.4%.

For the compound `Cc1ccc(-n2ncc(C(=O)Nc3c(Cl)cccc3Cl)c2C2CCNCC2)cc1`, the activation was inactive: -17.4%.

As to `Cc1ccc(CNC(=O)C2CCCN(c3ncnc4onc(-c5ccc(F)cc5)c34)C2)cc1` (stereo not drawn), the activation is inactive: -12.7%.

Consider `O=C(CN1C(=O)CCSc2ccccc21)Nc1ccc(C(F)(F)F)cc1`, for which the activation was active: 63.1%.

Take `CN1CC(=O)Nc2cc(C(=O)O)ccc21`: the activation is inactive: -18.1%.

In the case of `COc1ccc(OC)c(NC(=O)Cn2c(=O)cc(C)c3c(C)nn(-c4cccc(Cl)c4C)c32)c1`, the activation is inactive: -17.9%.

Turning to `Cc1ccc(-n2cc(C(=O)OCc3ccc(F)c(F)c3)c3ccccc3c2=O)cc1`, the activation is inactive: -9.06%.

On to `Cc1ccccc1-c1noc(-c2nnn(-c3ccccc3C)c2N)n1`, for which the activation was inactive: 16.1%.

Consider `CCOC(=O)c1ccccc1NC(=O)Cn1ccn2nc(-c3ccc(OCC)cc3)cc2c1=O`, for which the activation is inactive: 1.22%.

For the compound `CCOc1ccccc1C(=O)Nc1ccc(S(=O)(=O)N(Cc2ccccc2)c2ccccc2)cc1`, the activation was inactive: -1.03%.

In the case of `CCOc1ccc(NC(=O)CN2CCN(CC(=O)Nc3ccc(F)cc3F)CC2)cc1`, the activation was inactive: 2.83%.

In the case of `CCCN1Cc2cccc(C(=O)Nc3ccccc3C(=O)OC)c2C1=O`, the activation is inactive: -0.981%.

Turning to `COc1ccc(N2CCN(C(=O)c3cnn(-c4ccc(OC)cc4)c3C3CCN(C(=O)OC(C)(C)C)CC3)CC2)cc1`, the activation was inactive: -5.76%.

`COc1cc(C(=O)N2CCN(C(=O)COc3cccc(C)c3)CC2)cc(OC)c1OC`: the activation is inactive: 9.44%.

Take `COc1ccc(Cc2nc3c4cnn(-c5cccc(F)c5)c4ncn3n2)cc1`: the activation is inactive: -9.84%.

As for `COC(=O)c1c(NC(=O)COc2cccc(C(F)(F)F)c2)sc2c1CCCC2`, the activation was inactive: 4.36%.

Take `Cc1cccc(C(=O)N(Cc2ccccc2F)C2CCS(=O)(=O)C2)c1` (stereo not drawn): the activation is inactive: -0.609%.

For `CCCCOc1cccc(C(=O)N2CCN(CCc3ccncc3)CC2)c1`, the activation was inactive: -5.57%.

In the case of `Cc1c(Cl)cccc1-c1ccc(/C=C(\C#N)c2nc3ccccc3[nH]2)o1`, the activation was inactive: 14.6%.

Take `CCCNC(=O)N1CCCN(S(=O)(=O)c2ccc3c(ccn3CC)c2)CC1`: the activation was inactive: -2.1%.

In the case of `CCN(CC)c1ccc(NS(=O)(=O)c2cc(-c3cc(C)no3)ccc2C)c(C)c1`, the activation was inactive: -26.7%.

On to `CCN(CC)S(=O)(=O)c1ccc2c(c1)c(=O)c(C(=O)N1CCN(c3cccc(Cl)c3)CC1)cn2C`, for which the activation is inactive: -3.91%.

As to `CCOc1ccccc1CNC(=O)C1CCN(c2nc3ccccc3nc2C(F)(F)F)CC1`, the activation is inactive: -21.2%.

For the compound `COc1ccc(-c2n[nH]c3c2cnc2cc(OC)c(OC)cc23)cc1`, the activation is inactive: 30.7%.

Consider `Cn1c(=O)oc2cc(S(=O)(=O)NC(Cc3ccccc3)C(=O)NCc3ccccc3Cl)ccc21` (stereo not drawn), for which the activation was inactive: -17.1%.

As to `CCc1ccc(C(=O)c2cn(CC(=O)Nc3ccc4c(c3)OCO4)c3ccc(F)cc3c2=O)cc1`, the activation is inactive: 8.12%.

Regarding `COc1cc(OC)c(NC(=O)c2ccc3c(c2)N(Cc2ccc(C)cc2)CCS3)cc1Cl`, the activation is inactive: -14.4%.

For the compound `Cc1cccc(C2N=C(N)Nc3nc4ccccc4n32)c1` (stereo not drawn), the activation is inactive: 27.4%.

As to `Cc1ccc(CSC2=Nc3ccccc3C3=NC(CC(=O)NCc4ccc5c(c4)OCO5)C(=O)N23)cc1` (stereo not drawn), the activation is inactive: -9.27%.

Regarding `COc1ccc(CCCc2nnc(SCC(=O)Nc3ccc(C)cc3)o2)cc1C`, the activation is inactive: -4.99%.

In the case of `Cc1ccc(-n2ncc(C(=O)NC3CCN(Cc4ccccc4)CC3)c2C2CCN(C(=O)OC(C)(C)C)CC2)cc1C`, the activation was inactive: -26.9%.

Take `O=C(Nc1ccc2nc(SCC(=O)N3CCCc4ccccc43)sc2c1)c1ccc(Cl)cc1`: the activation is inactive: -12.2%.

With `CCCS(=O)(=O)Nc1cc(-c2cn3ccc(C)cc3n2)ccc1C`, the activation is inactive: -11.9%.

As to `Nc1nc2c(nc(Br)n2C2OC3COP(=O)(O)O[C@@H]3C2O)c(=O)[nH]1` (stereo partly drawn), the activation is inactive: -3.86%.

`CC(Sc1nc(=O)cc(N)n1CCc1ccccc1)C(=O)Nc1cccc(Cl)c1` (stereo not drawn): the activation was inactive: -2.34%.

`COc1ccc(-n2c(=O)c3ccccc3n(Cc3ccccc3Cl)c2=O)cc1`: the activation is inactive: -2.67%.

As for `Fc1ccc(-c2nn(-c3ccc(Cl)cc3)c3c2cnc2ccc(F)cc23)cc1`, the activation was inactive: 16.8%.

Turning to `CCC(C(=O)NCCc1cc(OC)ccc1OC)n1nc(C)c2c(C)n(-c3ccccc3)nc2c1=O` (stereo not drawn), the activation was inactive: -6.86%.

For the compound `CCOc1ccccc1NC(=O)Cn1c(=O)n(Cc2cccs2)c(=O)c2cccnc21`, the activation was inactive: -28.8%.

As for `Cc1ccc(S(=O)(=O)c2nnn3c2nc(N2CCOCC2)c2sccc23)cc1C`, the activation is inactive: -20%.

Take `Cc1ccc(Nc2sc(C(=O)c3ccc(F)cc3)c(N)c2S(=O)(=O)c2ccc(C)cc2)cc1`: the activation was inactive: -33.2%.

On to `COc1ccccc1N1CCN(S(=O)(=O)c2c(C)sc3ncn(CC(=O)Nc4ccc(C)cc4Br)c(=O)c23)CC1`, for which the activation was inactive: 6.87%.

On to `COc1ccc(C(=O)Nc2nc3n(n2)C(c2ccc(Cl)cc2)C=C(c2ccccc2)N3)cc1OC` (stereo not drawn), for which the activation is inactive: 6.64%.

On to `Cc1ccc(C)c(CN2C(=O)c3ccccc3S(=O)c3ccc(C(=O)N4CCOCC4)cc32)c1` (stereo not drawn), for which the activation was inactive: -10.9%.

With `CCOC(=O)C1=C(CN2CCN(C)CC2)NC(=O)NC1c1ccc(F)cc1` (stereo not drawn), the activation was inactive: 2.99%.

For the compound `CC(C)c1ccc(OCC(=O)NCC(c2ccc(Cl)cc2)N2CCOCC2)cc1` (stereo not drawn), the activation is inactive: -4.72%.

Consider `CCN(Cc1ccccc1)C(=O)Cn1c(=O)n(-c2cccc(C)c2)c(=O)c2c1c1cc(OC)ccc1n2C`, for which the activation was inactive: -6.88%.

`CC(C)NC(=O)C1CCN(C(=O)c2cnn(-c3ccccc3)c2-n2cccc2)CC1`: the activation is inactive: 1.75%.

On to `COc1ccc(N2C(N)=C(C#N)C(c3cc(CN4CCOCC4)cs3)C3=C2CCCC3=O)cc1` (stereo not drawn), for which the activation was inactive: -1.43%.

Consider `Cc1nc2c(C(=O)NCCc3ccc(Cl)cc3)cnn2c(C)c1Cc1ccc(F)cc1`, for which the activation was inactive: -42.7%.

For the compound `COc1ccc(NS(=O)(=O)c2ccc(-n3cccn3)cc2)cc1OC`, the activation is inactive: 14.2%.

In the case of `CN(C(=O)c1cc2nc(-c3ccc4c(c3)OCO4)cc(C(F)(F)F)n2n1)c1ccc(OC(F)(F)F)cc1`, the activation was inactive: 7.88%.

For the compound `Cn1nc(C(=O)NCCc2ccc(Cl)cc2)c2c1-c1ccccc1SC2`, the activation was inactive: -8.31%.

For the compound `CCCSc1nc2sc3c(c2c(=O)n1-c1ccc(C)c(Cl)c1)CCN(C(C)=O)C3`, the activation was inactive: -20.3%.

For `CSc1nnc2n(-c3cccc(C)c3)c(=O)c3c4c(sc3n12)CCCC4`, the activation was inactive: 24.4%.

For `Cc1cccn2c(=O)cc(COc3cccc(NC(=O)c4cccc(Cl)c4)c3)nc12`, the activation is inactive: -15.9%.

For the compound `O=C(Nc1ccccc1F)c1oc2ccccc2c1NC(=O)c1c(F)cccc1F`, the activation was inactive: 14.5%.

Take `Cc1cccc(-c2nnc(SCC(=O)N3CCCCC3)o2)c1`: the activation was inactive: 0.219%.

For the compound `COc1ccc(S(=O)(=O)c2c(O)c(C)cc(NC(=O)c3ccccc3)c2C(C)C)cc1`, the activation is inactive: -27.2%.

On to `COc1ccccc1N1CCN(C(=O)c2ccc(Nc3nc4ccccc4n4nnnc34)cc2)CC1`, for which the activation is inactive: -17.8%.
